Assay results taken from the supplement of paper PMC4967469.
pIC50: −log10 of the molar value. A lower IC50 marks a more sensitive line; a fit beyond the top or the lowest dose is shown as a bound at that dose. AUC sums up the same curve from the lowest dose to the 256-fold higher top dose; values near 1 show little effect. For part of these data: An inferred top dose is not printed in the source and was worked back from the curve model.

What was measured:
Test in all cases: Viability of human cancer cell lines after 72 h of drug (GDSC screen)
QL-XI-92 = compound: C=CC(=O)Nc1cc(NC(=O)c2ccc(C)c(NC(=O)c3ccno3)c2)cc(C(F)(F)F)c1 [QL-XI-92]; settings: top dose 10.24 µM; top dose inferred
Procedure: (§1)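 Human cancer cell lines in 384-well plates, medium with 10% serum, drug for 72 h over a 256-fold dose range (nine 2-fold or five 4-fold steps up to the top dose). Adherent lines were fixed and stained with the nucleic acid dye Syto60, suspension lines read with resazurin; signal relative to control wells, capped at 0 and 100%. One two-parameter sigmoid per drug and line, fitted in a mixed model over all curves with the slope shared within a line.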

EHT 1864 = compound: O=c1cc(CN2CCOCC2)occ1OCCCCCSc1ccnc2cc(C(F)(F)F)ccc12 [EHT 1864]; settings: top dose 10 µM; top dose inferred
Procedure: as §1

Phenformin = compound: N=C(N)NC(=N)NCCc1ccccc1 [Phenformin]; settings: top dose 4000 µM; top dose inferred
Procedure: as §1

NU-7441 = compound: O=c1cc(N2CCOCC2)oc2c(-c3cccc4c3sc3ccccc34)cccc12 [NU-7441]; settings: top dose 2 µM; top dose inferred
Procedure: as §1

Gefitinib = compound: COc1cc2ncnc(Nc3ccc(F)c(Cl)c3)c2cc1OCCCN1CCOCC1 [Gefitinib]; settings: top dose 0.5 µM
Procedure: as §1

XL-184 = compound: COc1cc2nccc(Oc3ccc(NC(=O)C4(C(=O)Nc5ccc(F)cc5)CC4)cc3)c2cc1OC [XL-184]; settings: top dose 5.12 µM; top dose inferred
Procedure: as §1

Vinorelbine = compound: CCC1=C[C@@H]2CN(C1)Cc1c([nH]c3ccccc13)[C@@](C(=O)OC)(c1cc3c(cc1OC)N(C)[C@H]1[C@@](O)(C(=O)OC)[C@H](OC(C)=O)[C@]4(CC)C=CCN5CC[C@]31[C@@H]54)C2 [Vinorelbine]; settings: top dose 0.064 µM; top dose inferred
Procedure: as §1

WHI-P97 = compound: COc1cc2ncnc(Nc3cc(Br)c(O)c(Br)c3)c2cc1OC [WHI-P97]; settings: top dose 10.24 µM; top dose inferred
Procedure: as §1

AG-014699 = compound: CNCc1ccc(-c2[nH]c3cc(F)cc4c3c2CCNC4=O)cc1 [AG-014699]; settings: top dose 5 µM; top dose inferred
Procedure: as §1

## KP-2 (pancreas, adherent)
QL-XI-92
  AUC: 0.866
  pIC50: < 4.99
EHT 1864
  AUC: 0.986
  pIC50: < 5.00
Phenformin
  AUC: 0.842
  pIC50: 2.50
NU-7441
  AUC: 0.955
  pIC50: < 5.70
Gefitinib
  AUC: 0.979
  pIC50: < 6.30
XL-184
  AUC: 0.969
  pIC50: < 5.29
Vinorelbine
  AUC: 0.692
  pIC50: 7.84
WHI-P97
  AUC: 0.981
  pIC50: < 4.99
AG-014699
  AUC: 0.986
  pIC50: < 5.30

## KP-3 (pancreas, adherent)
QL-XI-92
  AUC: 0.926
  pIC50: < 4.99
EHT 1864
  AUC: 0.977
  pIC50: < 5.00
Phenformin
  AUC: 0.73
  pIC50: 2.89
NU-7441
  AUC: 0.974
  pIC50: < 5.70
Gefitinib
  AUC: 0.984
  pIC50: < 6.30
XL-184
  AUC: 0.926
  pIC50: < 5.29
Vinorelbine
  AUC: 0.788
  pIC50: 7.47
WHI-P97
  AUC: 0.944
  pIC50: < 4.99
AG-014699
  AUC: 0.979
  pIC50: < 5.30

## KU-19-19 (bladder, adherent)
QL-XI-92
  AUC: 0.986
  pIC50: < 4.99
EHT 1864
  AUC: 0.935
  pIC50: < 5.00
Phenformin
  AUC: 0.755
  pIC50: 2.87
NU-7441
  AUC: 0.877
  pIC50: < 5.70
Gefitinib
  AUC: 0.872
  pIC50: 6.32
XL-184
  AUC: 0.987
  pIC50: < 5.29
Vinorelbine
  AUC: 0.959
  pIC50: < 7.19
WHI-P97
  AUC: 0.987
  pIC50: < 4.99
AG-014699
  AUC: 0.896
  pIC50: < 5.30

## KYM-1 (rhabdomyosarcoma, adherent)
QL-XI-92
  AUC: 0.975
  pIC50: < 4.99
EHT 1864
  AUC: 0.941
  pIC50: < 5.00
Phenformin
  AUC: 0.871
  pIC50: 2.54
NU-7441
  AUC: 0.954
  pIC50: < 5.70
Gefitinib
  AUC: 0.941
  pIC50: < 6.30
XL-184
  AUC: 0.991
  pIC50: < 5.29
Vinorelbine
  AUC: 0.68
  pIC50: 7.93
WHI-P97
  AUC: 0.991
  pIC50: < 4.99
AG-014699
  AUC: 0.84
  pIC50: 5.56

## KYSE-50 (oesophagus, adherent)
QL-XI-92
  AUC: 0.853
  pIC50: 5.16
EHT 1864
  AUC: 0.956
  pIC50: < 5.00
Phenformin
  AUC: 0.735
  pIC50: 2.96
NU-7441
  AUC: 0.973
  pIC50: < 5.70
Gefitinib
  AUC: 0.919
  pIC50: < 6.30
XL-184
  AUC: 0.829
  pIC50: 5.55
Vinorelbine
  AUC: 0.424
  pIC50: 8.60
WHI-P97
  AUC: 0.964
  pIC50: < 4.99
AG-014699
  AUC: 0.99
  pIC50: < 5.30

## KYSE-140 (oesophagus, adherent)
QL-XI-92
  AUC: 0.901
  pIC50: < 4.99
EHT 1864
  AUC: 0.97
  pIC50: < 5.00
Phenformin
  AUC: 0.984
  pIC50: < 2.40
NU-7441
  AUC: 0.957
  pIC50: < 5.70
Gefitinib
  AUC: 0.819
  pIC50: 6.47
XL-184
  AUC: 0.932
  pIC50: < 5.29
Vinorelbine
  AUC: 0.718
  pIC50: 7.74
WHI-P97
  AUC: 0.776
  pIC50: 5.34
AG-014699
  AUC: 0.966
  pIC50: < 5.30

## KYSE-150 (oesophagus, adherent)
QL-XI-92
  AUC: 0.988
  pIC50: < 4.99
EHT 1864
  AUC: 0.971
  pIC50: < 5.00
Phenformin
  AUC: 0.842
  pIC50: 2.58
NU-7441
  AUC: 0.978
  pIC50: < 5.70
Gefitinib
  AUC: 0.98
  pIC50: < 6.30
XL-184
  AUC: 0.962
  pIC50: < 5.29
Vinorelbine
  AUC: 0.48
  pIC50: 8.45
WHI-P97
  AUC: 0.966
  pIC50: < 4.99
AG-014699
  AUC: 0.957
  pIC50: < 5.30

## KYSE-220 (oesophagus, adherent)
QL-XI-92
  AUC: 0.962
  pIC50: < 4.99
EHT 1864
  AUC: 0.937
  pIC50: < 5.00
Phenformin
  AUC: 0.776
  pIC50: 2.77
NU-7441
  AUC: 0.979
  pIC50: < 5.70
Gefitinib
  AUC: 0.85
  pIC50: 6.39
XL-184
  AUC: 0.963
  pIC50: < 5.29
Vinorelbine
  AUC: 0.551
  pIC50: 8.25
WHI-P97
  AUC: 0.9
  pIC50: < 4.99
AG-014699
  AUC: 0.926
  pIC50: < 5.30

## KYSE-410 (oesophagus, adherent)
QL-XI-92
  AUC: 0.966
  pIC50: < 4.99
EHT 1864
  AUC: 0.934
  pIC50: < 5.00
Phenformin
  AUC: 0.697
  pIC50: 3.03
NU-7441
  AUC: 0.935
  pIC50: < 5.70
Gefitinib
  AUC: 0.894
  pIC50: < 6.30
XL-184
  AUC: 0.974
  pIC50: < 5.29
Vinorelbine
  AUC: 0.563
  pIC50: 8.22
WHI-P97
  AUC: 0.98
  pIC50: < 4.99
AG-014699
  AUC: 0.985
  pIC50: < 5.30

## KYSE-450 (oesophagus, adherent)
QL-XI-92
  AUC: 0.93
  pIC50: < 4.99
EHT 1864
  AUC: 0.985
  pIC50: < 5.00
Phenformin
  AUC: 0.51
  pIC50: 3.58
NU-7441
  AUC: 0.934
  pIC50: < 5.70
Gefitinib
  AUC: 0.819
  pIC50: 6.58
XL-184
  AUC: 0.776
  pIC50: 5.71
Vinorelbine
  AUC: 0.614
  pIC50: 8.09
WHI-P97
  AUC: 0.8
  pIC50: 5.34
AG-014699
  AUC: 0.973
  pIC50: < 5.30

## KYSE-510 (oesophagus, adherent)
QL-XI-92
  AUC: 0.992
  pIC50: < 4.99
EHT 1864
  AUC: 0.983
  pIC50: < 5.00
Phenformin
  AUC: 0.599
  pIC50: 3.35
NU-7441
  AUC: 0.967
  pIC50: < 5.70
Gefitinib
  AUC: 0.944
  pIC50: < 6.30
XL-184
  AUC: 0.986
  pIC50: < 5.29
Vinorelbine
  AUC: 0.436
  pIC50: 8.56
WHI-P97
  AUC: 0.988
  pIC50: < 4.99
AG-014699
  AUC: 0.968
  pIC50: < 5.30

## KYSE-520 (oesophagus, adherent)
QL-XI-92
  AUC: 0.973
  pIC50: < 4.99
EHT 1864
  AUC: 0.967
  pIC50: < 5.00
Phenformin
  AUC: 0.635
  pIC50: 3.17
NU-7441
  AUC: 0.973
  pIC50: < 5.70
Gefitinib
  AUC: 0.936
  pIC50: < 6.30
XL-184
  AUC: 0.89
  pIC50: < 5.29
Vinorelbine
  AUC: 0.693
  pIC50: 7.77
WHI-P97
  AUC: 0.954
  pIC50: < 4.99
AG-014699
  AUC: 0.954
  pIC50: < 5.30

## LC-1-sq (lung squamous cell carcinoma, adherent)
QL-XI-92
  AUC: 0.977
  pIC50: < 4.99
EHT 1864
  AUC: 0.895
  pIC50: < 5.00
Phenformin
  AUC: 0.799
  pIC50: 2.64
NU-7441
  AUC: 0.949
  pIC50: < 5.70
Gefitinib
  AUC: 0.865
  pIC50: < 6.30
XL-184
  AUC: 0.958
  pIC50: < 5.29
Vinorelbine
  AUC: 0.947
  pIC50: < 7.19
WHI-P97
  AUC: 0.982
  pIC50: < 4.99
AG-014699
  AUC: 0.974
  pIC50: < 5.30

## LCLC-103H (large cell lung carcinoma, adherent)
QL-XI-92
  AUC: 0.9
  pIC50: < 4.99
EHT 1864
  AUC: 0.967
  pIC50: < 5.00
Phenformin
  AUC: 0.709
  pIC50: 3.04
NU-7441
  AUC: 0.99
  pIC50: < 5.70
Gefitinib
  AUC: 0.991
  pIC50: < 6.30
XL-184
  AUC: 0.939
  pIC50: < 5.29
Vinorelbine
  AUC: 0.287
  pIC50: 8.97
WHI-P97
  AUC: 0.958
  pIC50: < 4.99
AG-014699
  AUC: 0.923
  pIC50: < 5.30
